The supplement of paper PMC4967469
The IC50 comes from the fitted curve, where viability falls to half of the control; fits outside the tested doses are given as limits. The AUC spans the tested range (256-fold, ending at the top dose) of the same fit; the more sensitive the line, the further below 1. For part of these data: An inferred top dose was derived from the fitted curves, not read from the paper.

Assays:
Assay in all cases: Viability of human cancer cell lines after 72 h of drug (GDSC screen)
[1] = compound: C=CC(=O)Nc1ccc(C(=O)c2sc(Nc3ccc(N4CCN(C)CC4)cc3OC)nc2N)cc1 [XMD15-27]; details: top dose 10.24 µM; top dose inferred
Experimental: (§1)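 Human cancer cell lines in 384-well plates, medium with 10% serum, drug for 72 h over a 256-fold dose range (nine 2-fold or five 4-fold steps up to the top dose). Adherent lines were fixed and stained with the nucleic acid dye Syto60, suspension lines read with resazurin; signal relative to control wells, capped at 0 and 100%. One two-parameter sigmoid per drug and line, fitted in a mixed model over all curves with the slope shared within a line.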

[2] = compound: CC(=O)O[C@@H]1[C@@H](OC(C)=O)[C@@H](O)[C@H](Oc2c(-c3ccc(O)cc3)oc3cc(O)cc(O)c3c2=O)O[C@H]1C [SL 0101-1]; details: top dose 10 µM; top dose inferred
Experimental: as §1

[3] = compound: CO[C@H]1C[C@@H]2CC[C@@H](C)[C@@](O)(O2)C(=O)C(=O)N2CCCC[C@H]2C(=O)O[C@H]([C@H](C)C[C@@H]2CC[C@@H](OC(=O)C(C)(CO)CO)[C@H](OC)C2)CC(=O)[C@H](C)/C=C(\C)[C@@H](O)[C@@H](OC)C(=O)[C@H](C)C[C@H](C)/C=C/C=C/C=C/1C [Temsirolimus]; details: top dose 0.2 µM
Experimental: as §1

Row | Cell Line | AUC [1] | IC50 [1] [µM] | AUC [2] | IC50 [2] [µM] | AUC [3] | IC50 [3] [µM]
1 | 8-MG-BA (glioma, adherent) | 0.955 | > 10.2 | 0.977 | > 10 | 0.828 | 0.113
2 | 22RV1 (prostate, adherent) | 0.975 | > 10.2 | 0.982 | > 10 | 0.746 | 0.0766
3 | 42-MG-BA (glioma, adherent) | 0.973 | > 10.2 | 0.976 | > 10 | 0.507 | 0.0131
4 | 201T (lung adenocarcinoma, adherent) | 0.951 | > 10.2 | 0.981 | > 10 | 0.861 | > 0.2
5 | 451Lu (melanoma, adherent) | 0.988 | > 10.2 | 0.977 | > 10 | 0.597 | 0.0228
6 | 639-V (bladder, adherent) | 0.99 | > 10.2 | 0.976 | > 10 | 0.458 | 0.00977
7 | 647-V (bladder, adherent) | 0.983 | > 10.2 | 0.982 | > 10 | 0.778 | 0.0816
8 | 697 (lymphoblastic leukaemia, suspension) | 0.919 | > 10.2 | 0.982 | > 10 | 0.472 | 0.0107
9 | 5637 (bladder, adherent) | 0.989 | > 10.2 | 0.987 | > 10 | 0.892 | 0.198
10 | 8305C (thyroid, adherent) | 0.982 | > 10.2 | 0.976 | > 10 | 0.802 | 0.136
11 | 8505C (thyroid, adherent) | 0.972 | > 10.2 | 0.985 | > 10 | 0.669 | 0.0382
12 | 23132-87 (stomach, adherent) | 0.986 | > 10.2 | 0.986 | > 10 | 0.725 | 0.0558
13 | A3-KAW (B-cell lymphoma, suspension) | 0.946 | > 10.2 | 0.992 | > 10 | 0.883 | 0.139
14 | A4-Fuk (B-cell lymphoma, suspension) | 0.97 | > 10.2 | 0.982 | > 10 | 0.752 | 0.0692
15 | A101D (melanoma, adherent) | 0.981 | > 10.2 | 0.896 | > 10 | 0.655 | 0.0373
16 | A253 (head and neck, adherent) | 0.988 | > 10.2 | 0.989 | > 10 | 0.879 | 0.197
17 | A375 (melanoma, adherent) | 0.991 | > 10.2 | 0.982 | > 10 | 0.266 | 0.00312
18 | A388 (skin, adherent) | 0.983 | > 10.2 | 0.978 | > 10 | 0.773 | 0.0893

Row | Cell Line | AUC [1] | IC50 [1] [µM] | AUC [2] | IC50 [2] [µM] | AUC [3] | IC50 [3] [µM]
19 | A427 (non-small cell lung carcinoma, adherent) | 0.985 | > 10.2 | 0.981 | > 10 | 0.774 | 0.0793
20 | A431 (skin, adherent) | 0.961 | > 10.2 | 0.987 | > 10 | 0.904 | > 0.2
21 | A498 (kidney, adherent) | 0.979 | > 10.2 | 0.974 | > 10 | 0.821 | > 0.2
22 | A704 (kidney, adherent) | 0.988 | > 10.2 | 0.989 | > 10 | 0.864 | 0.166
23 | A2780 (ovary, semi-adherent) | 0.89 | > 10.2 | 0.961 | > 10 | 0.613 | 0.0259
24 | ALL-PO (lymphoblastic leukaemia, suspension) | 0.912 | > 10.2 | 0.869 | > 10 | 0.896 | > 0.2
25 | ALL-SIL (T-cell leukaemia, suspension) | 0.915 | > 10.2 | 0.984 | > 10 | 0.77 | 0.0657
26 | AM-38 (glioma, semi-adherent) | 0.984 | > 10.2 | 0.939 | > 10 | 0.808 | 0.106
27 | AMO-1 (haematopoietic neoplasm, suspension) | 0.991 | > 10.2 | 0.989 | > 10 | 0.847 | 0.117
28 | ARH-77 (myeloma, suspension) | 0.959 | > 10.2 | 0.977 | > 10 | 0.987 | > 0.2
29 | ASH-3 (thyroid, adherent) | 0.986 | > 10.2 | 0.987 | > 10 | 0.839 | 0.137
30 | AU565 (breast, adherent) | 0.976 | > 10.2 | 0.984 | > 10 | 0.739 | 0.0662
31 | AsPC-1 (pancreas, adherent) | 0.974 | > 10.2 | 0.92 | > 10 | 0.873 | > 0.2
32 | BB30-HNC (head and neck, adherent) | 0.985 | > 10.2 | 0.968 | > 10 | 0.711 | 0.0484
33 | BB49-HNC (head and neck, adherent) | 0.977 | > 10.2 | 0.955 | > 10 | 0.771 | 0.11
34 | BC-1 (B-cell lymphoma, suspension) | 0.991 | > 10.2 | 0.983 | > 10 | 0.951 | > 0.2
35 | BE2-M17 (neuroblastoma, adherent) | 0.987 | > 10.2 | 0.983 | > 10 | 0.847 | 0.154
36 | BFTC-905 (bladder, adherent) | 0.989 | > 10.2 | 0.947 | > 10 | 0.899 | 0.191
